{"source": "the RNAGym collection of RNA variant scans (doi:10.7554/elife.90254)", "parents": {"B1": {"name": "LINE1-full (parent)", "chain": "UACGUAGGUGGUUUUCCCCUGAUAGUGCUAAGGGGGCCUGGAAGUUUGGACUGGGCAGAGCUCAACACAGCGUGGCAAAGUGGCUGUGGCUAGACUGCCUCUCUGGAUUCCUCGUCACUCAGCAGGGCAUCUCUGAGAGAAAUGCC"}}, "note": "Read counts are not given, so values of variants with three or more changes are uncertain.", "data": [{"variants_of": "B1", "experiment": "self-cleavage, relative activity (ratio to wild type); higher = more cleavage; in vitro, sequencing; the parent is a self-cleaving ribozyme", "values": [{"variant": "UACGUAGGUGGUUUUCCCCUGAUAGUGCUAAGGGGGUCUGGAAGUUUGGACUGGGCAGAGCUCAACACAGCGUGGCAGAGUGGCUGUGGCUAGACAGCCUCUCCGGAUUCCUCGUCACUCAGCAGGGCAUCUCUGAGAGAGAUGCC", "self-cleavage": 0.06}, {"variant": "UACGUAGGUGGUUUUCCCCUGAUAGUGCUAAGGGGGGCUGGAAGUUUGGACUGGGCAGAGCUCAACACAGCGCGGCAAAGUGGCUGUGGCUAGACUGCCUCUCUGAAUUCCUCGUCACUCAGCAGGGCAUCUCUGAGAGAAAUGCC", "self-cleavage": 1.74}, {"variant": "UACGUAGGUGGUUUUCCCCUGAUAGUGCUAAGGGGGUCUGGAAGUUUGGACUGGGCAGAGCCCAACACAGCGUGGCAAAGUGGCUGUGGCUAGACUGCCUCUCUGGAUUCCUCGUCACUCAGUUGGGCAUCUCUGAGAGAAAUGCC", "self-cleavage": 0.03}, {"variant": "UACGUAGGUGGUUUUCCCCUGAUAGUGCUAAGGGGGUCUGGAAGUUUGGACUGGGCAGAGCUCAGCACAGCGUGGCAAAGUGGCUGUGGCUAGACUGCCUCUCUGGAUUCCUCGUCACUCAGCAGGGCAUCCCUGAGAGAAAUGCC", "self-cleavage": 0.03}, {"variant": "UACGUAGGUGGUUUUCCCCUGAUAGUGCUAAGGGGGUCUGGAAGUUUGGACUGGGCAGAGCUCAACACAGCGUGGCAAAGUGGCUGUGGCUAGACUGCCUCUCUGGAUUCCUCGUCACCCAGCAGGGCACCUCUGAGAGAAAUGCC", "self-cleavage": 1.95}, {"variant": "UACGUAGGUGGUUUUCCCCUGAUAGUGCUAAGGGGGGCUGGAAGUUUGGACUGGGCAGAGCUCAACACAGCGUGGCAAAGUGGCUGUGGCUAGACCGCCUCUCUGGAUUCCUCGUCACCCAGCAGGGCAUCUCUGAGAGAAAUGCC", "self-cleavage": 0}, {"variant": "UACGUAGGUGGUUUUCCCCUGAUAGUGCUAAGGGGGUCUGGAAGUUUGGACUGGGCAGAGCUCAACACAGCGUGGCAAAGUGGCUGUGGCUAGACUGCCUCUCUGGAUUCCCCGUCACUCAGCGGGGCAUCUCUGAGAGAAAUGCC", "self-cleavage": 0}, {"variant": "UACGUAGGUGGUUUUCCCCUGAUAGUGCUAAGGGGGUCUGGAAGUUUGGACUGGGCUGAGCUCAACACAGCGUGGCAAGGUGGCUGUGGCUAGACUGCCUCUCUGGAUUCCUCGUCACUCAGCAGGGCGUCUCUGAGAGAAAUGCC", "self-cleavage": 0.12}, {"variant": "UACGUAGGUGGUUUUCCCCUGAUAGUGCUAAGGGGGUCUGGAAGUUUGGUCUGGGCGGAGCUCAACACAGCGUGGCAAGGUGGCUGUGGCUAGACUGCCUCUCUGGAUUCCUCGUCACUCAGCAGGGCAUCUCUGAGAGAAAUGCC", "self-cleavage": 0.3}, {"variant": "UACGUAGGUGGUUUUCCCCUGAUAGUGCUAAGGGGGGCUGGAAGUAUGGACUGGGCAGAGCUCAACACAGCGUGGCAAAGUGGCUGUGGCUAGACUGCCUCUCUGGAUUCCUCGUCACUCAGCGGGGCAUCUCUGAGAGAAAUGCC", "self-cleavage": 0.85}, {"variant": "UACGUAGGUGGUUUUCCCCUGAUAGUGCUAAGGGGGUCUGGAAGUUUGGUCCGGGCAGAGCUCAACACAGCGUGGCAAAGUGGCUGUGGCUAGACUGCCUCUCUGGAUUCCUCGUCACUCAGCAGGGCAUCUCUGAGAGAAAAGCC", "self-cleavage": 1.13}, {"variant": "UACGUAGGUGGUUUUCCCCUGAUAGUGCUAAGGGGGUCUGGAAGUUUGGACUGGGCAGAGCUCAACACAGCGUGGCAAAGUGGCUGUGGCUAGACUGCCUCUCUGGAUUCCUCGCCACUCAGCAGUGCAUCUCUGAGAGAAAUGCC", "self-cleavage": 0.9}, {"variant": "UACGUAGGUGGUUUUCCCCUGAUAGUGCUAAGGGGGUCUGGAAGUCUGGACUGGGCAGAGCUCAACACAGCGUGGCAAAGUGGCUGUGGCUAGACUGCCUCUCUGGAUUCCUCGUCACUCAGCAGGGCAUCCCUGAGAGAAAUGCC", "self-cleavage": 0.76}, {"variant": "UACGUAGGUGGUUUUCCCCUGAUAGUGCUAAGGGGGUCCGGAAGUUUGGACUGGGCAGAGCUCAACACAGCGUGGCAAAGUGGCUGUGGCUAGACUGCCUCUCUGGAUUCCUCGUCCCUCAGCAGGGCAUCUCUGAGAGAAAUGCA", "self-cleavage": 1.15}, {"variant": "UACGUAGGUGGUUUUCCCCUGAUAGUGCUAAGGGGGGCUGGAAGUGUGGACUGGGCAGAGCUCAACACAGCGUGGCAAAGUGGCUGUGGCUAGACUGCCUCUCUGGAUUCCUCGUCACUCAGCAGGGCACCUCUGAGAGAAAUGCC", "self-cleavage": 1.19}, {"variant": "UACGUAGGUGGUUUUCCCCUGAUAGUGCUAAGGGGGGCUGGAAGUUUGGACUGGGCAGAGCUCAACACAGCGUGGCAAAGUGGCUGUGGCUAGACUGCCUCUCUGGAUCCCUCGACACUCAGCAGGGCAUCUCUGAGAGAAAUGCC", "self-cleavage": 0.74}, {"variant": "UACGUAGGUGGUUUUCCCCUGAUAGUGCUAAGGGGGCAUGGGAGUUUGGACUGGGCAGAGCUCAACACAGCGUGGCAAAGUGGCUGUGGCUAGACUGCCUCUCUGGAUUCCUCGUCACUCAGCAGGGCAUCUCUGUGAGAAAUGCC", "self-cleavage": 2.16}, {"variant": "UACGUAGGUGGUUUUCCCCUGAUAGUGCUAAGGGGGUCUGGAAGUUUGGGCUGGGCGGAGCUCAACACAGCGUGGCGAAGUGGCUGUGGCUAGACUGCCUCUCUGGAUUCCUCGCCACUCAGCAGGGCAUCUCUGAGAGAAAUGCC", "self-cleavage": 0}, {"variant": "UACGUAGGUGGUUUUCCCCUGAUAGUGCUAAGGGGGUCUGGAAGUUUGGACUGGGCAGAGCUCAACACAGCGUGGCAAAGUGGCUGUGGCUUGACUGCCUCUCUGGAUUCCUCGUCACCCAGCAGGGCAUCUCUGAGAGAAAUGCC", "self-cleavage": 0.55}, {"variant": "UACGUAGGUGGUUUUCCCCUGAUAGUGCUAAGGGGGUCUGGGAGUUUGGACUGGGCAGAGCUCAACACAGCGUGGCAAAGUGGCUGUGGCUAGGCUGCCUCUCUGGAUUCCUCGUCACUCAGCAGGGCAUCUCUGAGAGGAAUGCC", "self-cleavage": 0.27}]}]}
